# In all, about 340,000 compounds went through this assay and about 12,000 (3.5%) were called active. This list was built around the results that the source calls inconclusive (neither active nor inactive); the mix of calls is not that of the screen. Calls come from the whole dose curve; as a rule, active = well fitted inhibition curve with a large enough effect; inconclusive = small, poorly fitted or top-dose-only effect, or another doubt; inactive = no such curve, though single readings can be large or run the other way. Potencies of inconclusive entries are left out as doubtful fits.
# Experiment: qHTS Assay for Inhibitors of Hepatitis C Virus (HCV)
# Conditions: Huh7.5.1 HCVcc-Cre (HCVcc is cell-culture hepatitis C virus) infection, luciferase reporter, 44 h; series mostly up to 41.8 µM
# Procedure, shortened: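 Seed cells (1,000/well) for 4 h; treat with compound and infect with HCVcc-Cre, moi about 0.5. Incubate 44 h, then detect luciferase activity.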
# Potency is the fitted concentration of half-maximal effect; tags give direction and shape of the fitted curve.
row,SMILES,Potency
1,C#CCNC(=O)C1=C[C@@H](C2CCCCC2)[C@H](CCCO)[C@@H](OCC)O1,"inconclusive [inhibitor, single point]"
2,O=C(NCCCCc1ccccc1)c1cccc(NC(=O)C2CCCCC2)c1,"inconclusive [inhibitor, single point]"
3,O=C(CSc1nc(-c2cccs2)cc(C(F)(F)F)n1)NCCCN1CCOCC1,"inconclusive [inhibitor, single point]"
4,CN(C)CCCN(C(=O)c1ccc2c(c1)CCCC2)c1nc2c(F)cccc2s1,active: 7.94 µM
5,O=C(Nc1ccccc1C(=O)O)c1ccc(NC(=O)C2CC2)cc1,inactive
6,CC(=O)OC1C2(CC3N4C(=O)C5(CO)SSC4(CC31O)C(=O)N5C)OC(C)C(C)(C)C2=O (stereo unspecified),active: 0.562 µM
7,COc1ccc(-c2cn(CCO)nc2-c2ccc(OC)cc2)cc1,inactive
8,CCOC(=O)c1ccc(NC(=O)N2CCCCCC2)cc1,inactive
9,CCOC(=O)C1CCCN(c2nc3ccccc3nc2C(C#N)C(=O)OCC)C1 (stereo unspecified),"inconclusive [inhibitor, single point]"
10,C=CCNC(=O)c1cc2c(=O)n3ccccc3nc2s1,inactive
11,CN(NC(=S)Nc1ccc(OC(F)F)cc1)C(=S)Nc1ccc(OC(F)F)cc1,"inconclusive [inhibitor, partial curve]"
12,COCCNC(=O)CN1CCN(S(=O)(=O)c2ccc3c(c2)CCCC3)CC1,"inconclusive [inhibitor, full curve, poor fit]"
13,COc1ccc(NC(=O)c2ccc(N3CCCC3=O)cc2)cc1Cl,"inconclusive [inhibitor, partial curve, poor fit]"
14,CCOc1ccc(NC(=S)NC(=O)c2c(Cl)cnn2CC)c([N+](=O)[O-])c1,"inconclusive [inhibitor, single point]"
15,CCCCn1cc(C(=O)c2cc(Br)ccc2O)cc(C#N)c1=O,active: 11.2 µM
16,COc1ccc(CC(=O)Nc2ccccc2C(=O)NCCc2ccccc2)cc1,"inconclusive [inhibitor, single point]"
17,C#CCOCCOCCOCCNc1nc(N2CCN(C(=O)CCCCCCCCCCNC(=O)[C@H](CO)n3cc(CCCSC)nn3)CC2)nc(N2CCN(C(=O)CCCCCCCCCCNC(=O)[C@H](CCCN=C(N)N)n3cc(C[C@@H](C)CC)nn3)CC2)n1,"inconclusive [inhibitor, single point]"
18,CCN(CC)c1ccc(NC(=O)c2ccccc2Br)cc1S(=O)(=O)Nc1ccccc1OC,"inconclusive [inhibitor, single point]"
19,CCC(=NCc1cc(OC)cc(OC)c1)c1c(O)n(C)c(=O)n(C)c1=O,active: 6.31 µM
20,O=C(C1CCCN(Cc2nc(-c3ccc(Cl)cc3)no2)C1)N1CCOCC1 (stereo unspecified),"inconclusive [inhibitor, single point]"
21,O=C1N[C@H](Cc2ccccc2)COC(=O)[C@H](Cc2ccc(F)cc2)C/C=C\C[C@H]1CC(=O)N(CCO)Cc1ccccc1,"inconclusive [inhibitor, full curve, poor fit]"

row,SMILES,Potency
1,CC(=O)N1Cc2ccccc2CC1C(=O)NCc1ccccc1F (stereo unspecified),inactive
2,COc1ccccc1CNS(=O)(=O)c1ccc2c(c1)CC(C)N2C(=O)C1CC1 (stereo unspecified),"inconclusive [inhibitor, single point]"
3,CC(C)(C)C(=O)CSc1nc2c(c(-c3cccs3)c1C#N)CCC2,"inconclusive [inhibitor, partial curve]"
4,CC(C)CC1NC(=O)N(CC(=O)c2ccc3c(c2)OCCO3)C1=O (stereo unspecified),inactive
5,O=C(NN=C1c2ccccc2-c2ccccc21)c1ccccc1,"inconclusive [inhibitor, partial curve]"
6,COc1ccc(-c2[nH]ncc2CN2CCN(Cc3cccs3)CC2)cc1F,"inconclusive [inhibitor, single point]"
7,COc1ccccc1C(=O)Nc1ccc2c(c1)CN(Cc1cnc(C)s1)CC2,"inconclusive [inhibitor, partial curve]"
8,Cc1ccc(-n2cc(CNC(C)c3cnn(C)c3C)c(-c3ccc(F)cc3)n2)cc1 (stereo unspecified),"inconclusive [inhibitor, single point]"
9,Cc1ccc(-c2nnn(CC(=O)N(Cc3ccccc3F)C(C(=O)NC3CCCC3)c3ccncc3)n2)o1 (stereo unspecified),"inconclusive [inhibitor, full curve, poor fit]"
10,CC(C)c1cc(C(=O)Nc2cc(Cl)ccc2O)no1,active: 10 µM
11,COc1ccc2c(c1)CCc1c(C(=O)NCCc3ccc(OC)c(OC)c3)noc1-2,"inconclusive [inhibitor, full curve]"
12,Cc1ccc(CCNC(=O)C2CCCN(C(=O)c3cc4sccc4n3C)C2)cc1 (stereo unspecified),"inconclusive [inhibitor, full curve, poor fit]"
13,COc1ccccc1NC(=O)Cn1c(C)nc2c(sc(=S)n2Cc2ccco2)c1=O,active: 12.6 µM
14,CCOC(=O)/C(C#N)=C/C=C1/C=CC=CN1C,inactive
15,COc1ccc(N2CCN(C(=O)C(Cc3ccccc3)n3cccc3)CC2)cc1 (stereo unspecified),"inconclusive [inhibitor, single point]"
16,CCCCn1c(N)c(N(C(=O)CSc2nnnn2-c2ccccc2C)C2CCCC2)c(=O)[nH]c1=O,"inconclusive [inhibitor, full curve, poor fit]"
17,CC(=O)c1cn(Cc2ccccc2C#N)c2ccccc12,active: 2.51 µM
18,O=C(COc1ccc(S(=O)(=O)N2CCOCC2)cc1)Nc1ccccc1C(F)(F)F,"inconclusive [inhibitor, single point]"
19,Cc1ccc(S(=O)(=O)N2CCCCC2)cc1NC(=O)CCNC(=O)c1ccc([N+](=O)[O-])cc1,"inconclusive [inhibitor, full curve]"
20,COc1cc(NC(=O)c2ccc(OCc3c(C)noc3C)c(OC)c2)cc(OC)c1,"inconclusive [inhibitor, partial curve]"
